According to PubChem BioAssay AID485298 (National Center for Advancing Translational Sciences (NCATS), 2010):
The campaign covered roughly 320,000 compounds. About 740 (0.23%) were called active. Not shown: some 2% with an inconclusive outcome. The entries are a selection whose mix differs from that of the whole data set. Where no call is shown, the source filed none.

Test: qHTS Assay for Small Molecule Inhibitors of Mitochondrial Division or Activators of Mitochondrial Fusion;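 note: temperature-sensitive fusion mutants such as fzo1-1 at 37 °C on non-fermentable ethanol glycerol medium; % of control where 0% means no effect; nearly all actives have a fitted effect of over 45% in size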
Conditions: S. cerevisiae fusion-defective mutant growth rescue, CellTiterGlo 48 h; at 46.1 µM (top of the series; calls come from the whole dose curve)
Source text: NIH Chemical Genomics Center [NCGC] NIH Molecular Libraries Probe Production centers Network [MLPCN] MLPCN Grant: MH081279-01 Assay Submitter (PI): Jodi M. Nunnari NCGC Assay Overview: The budding yeast S. cerevisiae is a powerful system to study mitochondrial fusion. Unlike other organisms, yeast cells without functional mitochondrial DNA (mtDNA) can be propagated and studied as long as they maintain a mitochondrial compartment and are provided with a fermentable carbon source. When mitochondrial fusion is blocked in yeast, mitochondrial tubules rapidly fragment and division continues unopposed. Under conditions where fusion is compromised in mammalian cells, nearly identical changes in mitochondrial structure have been observed. Thus, these findings indicate that steady state mitochondrial structure in cells is a characteristic and specific indicator of fusion activity. […] We have developed and optimized a luminescence cell viability assay in 1536 well format for the identification of inhibitors in the yeast mitochondrial fusion-defective assay.
The yeast glycerol stocks where kindly supplied by the laboratory of Dr. Jodi Nunnari, University of California, Davis. […] The CellTiterGlo luminescence reagent, containing luciferase and luciferin, were purchased from Promega, and the reagents were stored according to manufacturer's instructions. […] 7.#Read using bio-luminescence protocol on Viewlux.

Compound	growth rescue (activation) [%]
CC1CCCCC1NC(=O)CNC(=S)N1CC2CC(C1)c1cccc(=O)n1C2 (stereo unspecified)	21.9
